Measured values from paper PMC3077382, “14-3-3 Proteins Regulate Exonuclease 1–Dependent Processing of Stalled Replication Forks” (PLoS Genetics, 2011).
These are yes or no findings as the source states them, for the method shown. Binding seen in cells or lysates may run through a third protein. Some results given as binding are weak or reduced against the parent protein; the word gives no strength. Sequences can lack the tags named with a protein.

Sequences of proteins named here, by UniProt entry; tags and fusion partners are left off. A change or cut given only in a name is not applied to a line headed by its entry. A line that says so, or that is headed by a name, gives the form on record, which may keep a tag or linker.
UniProt P34730: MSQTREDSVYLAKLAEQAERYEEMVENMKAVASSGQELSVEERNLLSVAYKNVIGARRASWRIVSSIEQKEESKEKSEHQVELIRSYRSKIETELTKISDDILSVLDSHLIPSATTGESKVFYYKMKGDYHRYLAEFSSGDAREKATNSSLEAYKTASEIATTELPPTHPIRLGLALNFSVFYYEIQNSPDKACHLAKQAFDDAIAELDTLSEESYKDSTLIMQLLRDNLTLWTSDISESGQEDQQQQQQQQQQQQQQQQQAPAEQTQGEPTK
UniProt P29311: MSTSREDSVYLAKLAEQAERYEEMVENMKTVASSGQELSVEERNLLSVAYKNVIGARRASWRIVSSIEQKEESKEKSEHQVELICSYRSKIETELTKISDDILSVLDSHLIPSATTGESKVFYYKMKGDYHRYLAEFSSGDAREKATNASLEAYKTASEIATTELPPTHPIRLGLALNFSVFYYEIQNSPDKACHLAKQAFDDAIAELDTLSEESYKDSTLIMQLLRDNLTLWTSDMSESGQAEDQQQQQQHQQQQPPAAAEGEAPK
Bmh1-280-HA (P29311, form named): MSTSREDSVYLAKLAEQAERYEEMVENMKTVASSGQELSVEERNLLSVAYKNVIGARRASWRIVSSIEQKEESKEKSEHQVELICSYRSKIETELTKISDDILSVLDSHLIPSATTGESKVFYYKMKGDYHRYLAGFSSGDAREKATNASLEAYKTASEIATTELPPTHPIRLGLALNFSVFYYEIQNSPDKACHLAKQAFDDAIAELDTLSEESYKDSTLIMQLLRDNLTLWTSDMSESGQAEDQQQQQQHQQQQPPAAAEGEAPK

How the values were obtained:
[1] = biological target: Bmh2-HA (S. cerevisiae) (UniProt P34730); test: co-IP; yeast cultures not treated with HU; 10 mg whole cell extract immunoprecipitated with monoclonal HA antibody; Exo1-Myc detected by blot
[2] = biological target: Bmh1-HA (S. cerevisiae) (UniProt P29311); test: as above
[3] = biological target: Bmh1-280-HA (S. cerevisiae) (UniProt P29311); test: as above
[4] = biological target: Bmh2-HA (S. cerevisiae) (UniProt P34730); test: co-IP; yeast cultures treated for 90 min with 150 mM HU; 10 mg whole cell extract immunoprecipitated with monoclonal HA antibody; Exo1-Myc detected by blot
[5] = biological target: Bmh1-HA (S. cerevisiae) (UniProt P29311); test: as above
[6] = biological target: Bmh1-280-HA (S. cerevisiae) (UniProt P29311); test: as above

binding [3]: no binding
binding [4]: binds
binding [5]: binds
binding [6]: no binding
B1: Exo1-Myc (protein, UniProt P39875 1-702)
chain: MGIQGLLPQLKPIQNPVSLRRYEGEVLAIDGYAWLHRAACSCAYELAMGKPTDKYLQFFIKRFSLLKTFKVEPYLVFDGDAIPVKKSTESKRRDKRKENKAIAERLWACGEKKNAMDYFQKCVDITPEMAKCIICYCKLNGIRYIVAPFEADSQMVYLEQKNIVQGIISEDSDLLVFGCRRLITKLNDYGECLEICRDNFIKLPKKFPLGSLTNEEIITMVCLSGCDYTNGIPKVGLITAMKLVRRFNTIERIILSIQREGKLMIPDTYINEYEAAVLAFQFQRVFCPIRKKIVSLNEIPLYLKDTESKRKRLYACIGFVIHRETQKKQIVHFDDDIDHHLHLKIAQGDLNPYDFHQPLANREHKLQLASKSNIEFGKTNTTNSEAKVKPIESFFQKMTKLDHNPKVANNIHSLRQAEDKLTMAIKRRKLSNANVVQETLKDTRSKFFNKPSMTVVENFKEKGDSIQDFKEDTNSQSLEEPVSESQLSTQIPSSFITTNLEDDDNLSEEVSEVVSDIEEDRKNSEGKTIGNEIYNTDDDGDGDTSEDYSETAESRVPTSSTTSFPGSSQRSISGCTKVLQKFRYSSSFSGVNANRQPLFPRHVNQKSRGMVYVNQNRDDDCDDNDGKNQITQRPSLRKSLIGARSQRIVIDMKSVDERKSFNSSPILHEESKKRDIETTKSSQARPAVRSISLLSQFVYKGK
binding [1]: no binding (condition: cells not treated with HU)
binding [2]: no binding (condition: cells not treated with HU)
